We go through 17 compounds from PubChem BioAssay (NCATS).

Some of the results follow. Further columns of the screen follow, without active or inactive calls. For some of these results: The list favours compounds with an active or inconclusive main result. The note in brackets gives the kind of curve behind each potency; many fits are weak.

Assay [1] is described as follows: qHTS drug screen for cell cycle checkpoint inhibitors in PARPi-resistant BRCA-mutant ovarian cancer cell lines. (AID 1963452). Conditions: PEO1/OlaR viability, CellTiter-Glo luminescence, 96 h. The method, boiled down: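 PEO1, PEO4 and PEO1/OlaR ovarian cancer cells, 600 per well, exposed 96 h at 37C to a dilution series. Viability read by CellTiter-Glo luminescence, normalized to DMSO and empty wells; activity summarized as Z-AUC.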
In general terms: Quantitative high-throughput screening tests each substance at several concentrations.

A short description of assay [2]: qHTS for identification of novel therapeutic agents for treatment of microphthalmiaassociated transcription factor (MiT) renal cell carcinoma (RCC) (AID 1963991). Conditions: CellTiter-Glo, 48 h; for z-score: stronger effect = lower value. The method, boiled down: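 Viability of three TFE3-fusion renal carcinoma lines measured by CellTiter-Glo after 48 h treatment with each of 1912 compounds at 11 concentrations. Responses scaled between DMSO (100%) and empty wells (0%) before curve fitting.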

Assay [3] in a line: S16 Schwann cell PMP22 intronic element beta-lactamase assay (AID 624044). Further: nearly all actives have a fitted effect of over 15% in size. As to conditions: S16 rat Schwann cells, PMP22 element beta-lactamase FRET, 24 h; measured here: 460 nm blue channel. In a few lines:
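Rat S16 Schwann cells with beta-Lac driven by a PMP22 intronic element, compound-treated 24 h at 37 °C. LiveBLAzer FRET B/G read: 460 nm normalized to potassium clavulanate vs DMSO; 535 nm FRET as viability; concentration-effect curves classified.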

The nature of assay [4]: qHTS Assay for Modulators of Human Peripheral Myelin Protein 22 (PMP22) Expression/Activity (AID 1967). As to conditions: Cell-based PMP22 reporter, dual-color luciferase ratio. In a few lines: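 Quantitative HTS in a mouse Schwann cell line expressing dual click beetle luciferases: Pmp22 promoter (green) and control EF-alpha promoter (red). After 24h treatment, corrected green/red signal ratio gave %Activity relative to untreated cells.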

Setting [5] is: measured here: PEO1 parental viability.
The mark [6] stands for this setting: TFE3-RCC UOK109 viability, measured here: UOK109 Z-AUC.
The mark [7] stands for this setting: TFE3-RCC viability, measured here: UOK124 Z-AUC.
Setting [8] is: TFE3-RCC viability, measured here: UOK124 cell viability.
[9] abbreviates: TFE3-RCC viability, measured here: UOK145 Z-AUC.
[10] abbreviates: TFE3-RCC viability, measured here: UOK145 cell viability.
Tags describe the fitted curve by direction and shape.

One may read the AC50 as the concentration at which the activity in the assay is half-maximal. Regarding `O=C(Nc1ccccc1Br)N[C@@H]1CCN(c2ccc(C(F)(F)F)cn2)C1`, the concentration at half-maximal activity (AC50) in assay [1] (setting [5]) was 24.5 µM [falling, single point]; in assay [2] (setting [8]), 16.6 µM [falling, partial curve]. Moreover, the z-score in assay [2] (setting [6]) stood at 0.278; in assay [2] (setting [7]) it was 0.506; in assay [2] (setting [9]) it was 0.443.

Turning to `C[C@H](NC(=O)c1sccc1OCc1ccc(Cl)cc1)c1ccccc1`, the concentration at half-maximal activity (AC50) in assay [1] (setting [5]) is 8.71 µM [falling, partial curve, poor fit]; in assay [2] (setting [8]), 23.5 µM [falling, partial curve, poor fit]. In addition, the values for the z-score in assay [2] (setting [6]), in assay [2] (setting [7]) and in assay [2] (setting [9]) were -0.216, -0.204 and -0.128, respectively.

As for `CC[C@]1(O)CC2CN(CCc3c([nH]c4ccccc34)[C@@](C(=O)OC)(c3cc4c(cc3OC)N(C)[C@H]3[C@@](O)(C(=O)OC)[C@H](OC(C)=O)[C@]5(CC)C=CCN6CC[C@]43[C@@H]65)C2)C1` (some centres not stated), the AC50 in assay [3] was 398 nM [falling, full curve]; in assay [1] (setting [5]), 0.977 µM [falling, full curve]; in assay [1] (measured here: PEO4 viability), 1.23 µM [falling, full curve].

Regarding `COc1cc2nccc(Oc3ccc(NC(=O)Nc4ccc(F)cc4F)c(F)c3)c2cc1OC`, the AC50 was 0.776 µM [falling, full curve] in assay [1] (measured here: PEO4 viability) and 8.33 µM [falling, partial curve] in assay [2] (setting [8]). The z-score is 0.38 in assay [2] (setting [6]), 0.0945 in assay [2] (setting [7]) and -1.08 in assay [2] (setting [9]).

Take `O=C(Nc1cccc(Br)c1)c1cccc(S(=O)(=O)N2CCCCCC2)c1`: the AC50 was 6.92 µM [falling, partial curve, poor fit] in assay [1] (setting [5]) and 18.7 µM [falling, partial curve] in assay [2] (setting [8]). In addition, the results for the z-score in assay [2] (setting [6]), in assay [2] (setting [7]) and in assay [2] (setting [9]) were 0.3, 0.159 and -0.465, respectively.

Regarding `Cc1ccc(CN2CCNCC2)cc1NC(=O)CNc1ccc(F)c(F)c1`, the AC50 in assay [1] (measured here: PEO4 viability) was 15.5 µM [falling, partial curve, poor fit]. The z-score is 0.359 in assay [2] (setting [6]), -0.0212 in assay [2] (setting [7]) and 0.0534 in assay [2] (setting [9]).

In the case of `COc1cc2ncnc(Nc3cc(Br)c(O)c(Br)c3)c2cc1OC`, the AC50 was 1.55 µM [falling, partial curve, poor fit] in assay [1] (measured here: PEO4 viability) and 0.0166 µM [falling, full curve] in assay [2] (setting [10]). The z-score in assay [2] (setting [6]) was -2.6; in assay [2] (setting [7]), -0.535; in assay [2] (setting [9]), -1.87.

`COc1ccc(-n2nc(C(N)=O)c3c2C(=O)N(c2ccc(N4CCCCC4=O)cc2)CC3)cc1`: the AC50 in assay [1] (measured here: PEO4 viability) is 24.5 µM [falling, single point]. The results for the z-score in assay [2] (setting [6]), in assay [2] (setting [7]) and in assay [2] (setting [9]) were 0.777, 0.482 and 0.755, respectively.

As for `C[C@H](NC(=O)C(=O)Nc1ccccc1C(C)(C)C)C(=O)N[C@@H](CC(=O)O)C(=O)COc1c(F)c(F)cc(F)c1F`, the AC50 is 27.5 µM [falling, partial curve, poor fit] in assay [1] (setting [5]) and 18.7 µM [falling, partial curve] in assay [2] (setting [10]). Besides, the z-score came to 0.313 in assay [2] (setting [6]), 0.693 in assay [2] (setting [7]) and 0.0696 in assay [2] (setting [9]).

On to `CN[C@H]1CC[C@@H](c2ccc(Cl)c(Cl)c2)c2ccccc21`, for which the concentration at half-maximal activity (AC50) is 47.8 µM [falling, partial curve] in assay [4] (measured here: green reporter channel AC50, mouse Pmp22 promoter in mouse Schwann cells); 33.8 µM [falling, full curve] in assay [4] (measured here: red reporter channel AC50, EF-alpha promoter control reporter in MSC80 mouse Schwann cells); 19.5 µM [falling, partial curve] in assay [1] (setting [5]); 19.5 µM [falling, partial curve] in assay [1] (measured here: PEO4 viability).

In the case of `CCCCOc1c(C(=O)c2c(F)cc(C)cc2F)cnc2n[nH]cc12`, the AC50 in assay [1] (measured here: PEO4 viability) is 0.0309 µM [falling, full curve]; in assay [2] (setting [10]) it was 7.43 µM [falling, full curve]. The figures for the z-score in assay [2] (setting [6]), in assay [2] (setting [7]) and in assay [2] (setting [9]) were -0.285, 0.591 and 0.0569, respectively.

For the compound `CC(C)(C)c1nc(-c2cccc(NS(=O)(=O)c3c(F)cccc3F)c2F)c(-c2ccnc(N)n2)s1`, the AC50 in assay [1] (setting [5]) is 24.5 µM [falling, single point]; in assay [2] (setting [10]), 1.32 µM [falling, partial curve, poor fit]. Moreover, the results for the z-score in assay [2] (setting [6]), in assay [2] (setting [7]) and in assay [2] (setting [9]) were -0.332, 0.573 and -0.585, respectively.

On to `Cc1c(Cn2c(C)nc3c(C(=O)O)cc(N4CCOCC4)cc32)cccc1C(F)(F)F`, for which the AC50 was 7.76 µM [falling, partial curve] in assay [1] (measured here: PEO4 viability) and 1.48 µM [falling, full curve] in assay [2] (setting [10]). Moreover, the z-score in assay [2] (setting [6]) was -1.74; in assay [2] (setting [7]), -0.631; in assay [2] (setting [9]) it was -0.788.

`O=C1CCc2ccc(OCCCCN3CCN(c4cccc(Cl)c4Cl)CC3)cc2N1`: the AC50 in assay [1] (setting [5]) is 15.5 µM [falling, partial curve]; in assay [2] (setting [8]), 18.7 µM [falling, partial curve]. Further, the z-score in assay [2] (setting [6]) stood at 0.873; in assay [2] (setting [7]) it was 0.326; in assay [2] (setting [9]), 0.731.

In the case of `N#Cc1ccc(C(c2ccc(C#N)cc2)n2cncn2)cc1`, the half-maximal activity concentration (AC50) in assay [1] (measured here: PEO4 viability) was 0.0087 µM [rising, full curve, poor fit]; in assay [2] (setting [10]), 18.7 µM [falling, partial curve]. The z-score was 0.0317 in assay [2] (setting [6]), 0.372 in assay [2] (setting [7]) and 0.416 in assay [2] (setting [9]).

Consider `NC(=O)c1ccc2nc(-c3ccc(Oc4ccc(Cl)cc4)cc3)[nH]c2c1`, for which the AC50 in assay [1] (measured here: PEO4 viability) was 6.92 µM [falling, partial curve]; in assay [2] (setting [8]), 16.6 µM [falling, partial curve]; in assay [2] (setting [10]) it was 2.64 µM [falling, partial curve]. The z-score in assay [2] (setting [6]) was -0.281; in assay [2] (setting [7]), 0.265; in assay [2] (setting [9]), 0.038.

As to `CN(C)c1ccc(Nc2nc(N)n(C(=O)c3c(F)cccc3F)n2)cc1`, the AC50 in assay [1] (setting [5]) was 19.5 µM [falling, single point]; in assay [2] (setting [8]) it was 20.9 µM [falling, single point]; in assay [2] (setting [10]) it was 13.2 µM [falling, partial curve]. The z-score is 0.0387 in assay [2] (setting [6]), -0.0326 in assay [2] (setting [7]) and -0.0249 in assay [2] (setting [9]).
